# Measurements published in PubChem BioAssay (NCATS).
# Several values for one entry are separate records, joined by “and”; a condition that tells them apart may be missing. Identical values can stand only once. Inconclusive results, whose numbers are uncertain, are shown with a selection of clear calls. Where the call is inconclusive, the potency comes from a doubtful curve fit. Activity calls are given as the source filed them. The call rests on the fitted dose curve; in most records, active means well fitted curve in the direction sought with a large enough effect; inconclusive means small, poorly fitted or top-dose-only effect, or another doubt; inactive means no such curve, though single readings can be large; an effect the other way counts as inactive or inconclusive.
# Key:
# [1] = P-glycoprotein substrates identified in KB-8-5-11 adenocarcinoma cell line, qHTS therapeutic library screen (AID 1346987); further: nearly all actives have a fitted effect of over 65% in size
# How it was run: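 In this qHTS, P-gp-rich KB-8-5-11 cells received library compounds across a concentration range. Viability was quantified by luminescence after 72 h at 37 degree C.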
# [2] = Primary fluorescence-based thiol-reactive (MSTI) qHTS assay for identification of artifact compounds. (AID 1845221);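 further: thiol-reactive compounds lower the probe fluorescence signal; nearly all actives have a fitted effect of over 65% in size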
# How it was run: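 Compounds were incubated 1 h at room temperature in the dark with the MSTI probe (4 uM) in PBS pH 7.4, 2% DMSO. Signals were normalized between Acetyl-MSTI and MSTI.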
# CRL-7250 = normal cell line; test: Cytotoxic Profiling of Annotated Libraries Using Quantitative High-Throughput Screening (AID 1296008); settings: Five cell lines viability, CellTiter-Glo ATP luminescence, 48-72 h; max response: stronger effect = lower value; further: nearly all actives have a fitted effect of over 60% in size; on max response: on the % scale 0 is the no-effect control and ±100 the full control effect
# How it was run: (§1)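 Cytotoxicity was measured as CellTiter-Glo ATP luminescence, read after 10 min at room temperature. Compound treatment of the cells lasted 48 or 72 hr at 37 degrees Celsius in a qHTS format.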
# HEK293 = test: as above; settings: Five cell lines viability, CellTiter-Glo ATP luminescence, 48-72 h; max response: stronger effect = lower value
# How it was run: as §1
# HaCat = test: as above; settings: Five cell lines viability, CellTiter-Glo ATP luminescence, 48-72 h; max response: stronger effect = lower value
# How it was run: as §1
# C33A = test: Primary qHTS to identify gynecologic anti-cancer compounds using libraries of approved drugs and bioactive compounds (AID 1345084); settings: Gynecologic cancer cell panel viability, ATPlite luminescence, 48 h; series mostly up to 57.5 µM; further: nearly all actives have a fitted effect of over 55% in size; on activity change, negative = cytotoxicity: on the % scale 0 is the no-effect control and ±100 the full control effect
# How it was run: (§2)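 Luminescence from the ATPlite ATP-monitoring reagent indicates viable cell number; lower signal means cytotoxicity. Cells received compound 16 h after seeding and were exposed for 48 h across five concentrations.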
# CAOV3 = test: as above; settings: Gynecologic cancer cell panel viability, ATPlite luminescence, 48 h; series mostly up to 57.5 µM
# How it was run: as §2
# PA-1 = test: as above; settings: Gynecologic cancer cell panel viability, ATPlite luminescence, 48 h; series mostly up to 57.5 µM
# How it was run: as §2
# SKOV3 = test: as above; settings: Gynecologic cancer cell panel viability, ATPlite luminescence, 48 h; series mostly up to 57.5 µM
# How it was run: as §2
# [3] = Primary qHTS for inhibitors of nuclear receptor binding SET domain protein 2 (NSD2) in an RCH-ACV wild type WT cells (2C) (AID 1645877); settings: activity change, negative = cell killing: at 44.9 µM (top of the series); further: nearly all actives have a fitted effect of over 70% in size
# Es-2 = test: Primary qHTS to identify gynecologic anti-cancer compounds using libraries of approved drugs and bioactive compounds (AID 1345084); settings: Gynecologic cancer cell panel viability, ATPlite luminescence, 48 h; series mostly up to 57.5 µM; further: nearly all actives have a fitted effect of over 55% in size; on activity change, negative = cytotoxicity: on the % scale 0 is the no-effect control and ±100 the full control effect
# How it was run: as §2
# OV90 = test: as above; settings: Gynecologic cancer cell panel viability, ATPlite luminescence, 48 h; series mostly up to 57.5 µM
# How it was run: as §2
# CASKI = test: as above; settings: Gynecologic cancer cell panel viability, ATPlite luminescence, 48 h; activity change, negative = cytotoxicity: at 57.5 µM (top of the series)
# How it was run: as §2
# Hek293T = test: as above; settings: Gynecologic cancer cell panel viability, ATPlite luminescence, 48 h, control line for the selectivity index; series mostly up to 57.5 µM
# How it was run: as §2
# Tov-21-G = test: as above; settings: Gynecologic cancer cell panel viability, ATPlite luminescence, 48 h; activity change, negative = cytotoxicity: at 57.5 µM (top of the series)
# How it was run: as §2
# [4] = Primary qHTS for inhibitors of nuclear receptor binding SET domain protein 2 (NSD2) in an isogenic RCH-ACV NSD2 p.E1099K mutant (9B) (AID 1645876); further: nearly all actives have a fitted effect of over 70% in size
# Tov112D = test: Primary qHTS to identify gynecologic anti-cancer compounds using libraries of approved drugs and bioactive compounds (AID 1345084); settings: Gynecologic cancer cell panel viability, ATPlite luminescence, 48 h; activity change, negative = cytotoxicity: at 57.5 µM (top of the series); further: nearly all actives have a fitted effect of over 55% in size; on activity change, negative = cytotoxicity: on the % scale 0 is the no-effect control and ±100 the full control effect
# How it was run: as §2
# JEG-3 = test: as above; settings: Gynecologic cancer cell panel viability, ATPlite luminescence, 48 h; series mostly up to 57.5 µM
# How it was run: as §2
# KB-3-1 = test: Cytotoxic Profiling of Annotated Libraries Using Quantitative High-Throughput Screening (AID 1296008); settings: Five cell lines viability, CellTiter-Glo ATP luminescence, 48-72 h; max response: stronger effect = lower value; further: nearly all actives have a fitted effect of over 60% in size
# How it was run: as §1
# NIH3T3 = test: as above; settings: Five cell lines viability, CellTiter-Glo ATP luminescence, 48-72 h; max response: stronger effect = lower value
# How it was run: as §1
# Potency means the concentration at half of the fitted maximal effect; tags describe the fitted curve by direction and shape.
smiles,measurement,setting,value
c1ccc(Cn2c(-c3ccc(OCC(C4CCNCC4)n4c(-c5ccccc5)nc5ccccc54)cc3)nc3ccccc32)cc1 (centres undefined),Potency,[1],"inconclusive: 20.6 µM [inhibitor, single point]"
same,Potency,[2],"inconclusive: 10.6 µM [inhibitor, partial curve, poor fit]"
same,Potency,CRL-7250,"inconclusive: 18.4 µM [inhibitor, single point]"
same,Potency,HEK293,"inconclusive: 25.9 µM [inhibitor, single point]"
same,Potency,HaCat,"inconclusive: 29.1 µM [inhibitor, single point]"
same,Potency,C33A,"inconclusive: 39.8 µM [cytotoxic, single point]"
same,Potency,CAOV3,"inconclusive: 39.8 µM [cytotoxic, single point]"
same,Potency,PA-1,inactive
same,Potency,SKOV3,"inconclusive: 39.8 µM [cytotoxic, partial curve, poor fit]"
Cc1cccc(N(C)C(=S)Oc2ccc3c(c2)C2CCC3C2)c1 (centres undefined),Potency,[3],"inconclusive: 33.5 µM [inhibitor, single point]"
same,Potency,CRL-7250,active: 29.9 µM
same,Potency,HEK293,"inconclusive: 18.8 µM [inhibitor, partial curve, poor fit]"
same,Potency,HaCat,"inconclusive: 0.841 µM [inhibitor, partial curve, poor fit]"
same,Potency,Es-2,"inconclusive: 39.8 µM [cytotoxic, single point]"
same,Potency,OV90,active: 35.5 µM
same,Potency,SKOV3,inactive
COC(=O)C1=C(C)NC(COC(N)=O)=C(C(=O)OC(C)C)C1c1cccc(Cl)c1Cl (centres undefined),Potency,[1],"inconclusive: 29.1 µM [inhibitor, single point]"
same,Potency,CRL-7250,"inconclusive: 29.9 µM [inhibitor, single point]"
same,Potency,HEK293,"inconclusive: 25.9 µM [inhibitor, partial curve, poor fit]"
same,Potency,HaCat,"inconclusive: 26.6 µM [inhibitor, single point]"
same,Potency,CASKI,inactive
same,Potency,OV90,inactive
same,Potency,SKOV3,inactive
CC(NC(CCc1ccccc1)C(=O)O)C(=O)N1C(=O)N(C)CC1C(=O)O (centres undefined),max response,CRL-7250,inactive: 1.99%
same,outcome,HEK293,inactive
same,outcome,HaCat,inactive
same,Potency,Hek293T,inactive
same,Potency,SKOV3,"inconclusive: 1 µM [cytotoxic, single point]"
same,Potency,Tov-21-G,inactive
CCC(C)C(=O)OC12C(OC(C)=O)C(C)C3(O)C(C=C(CO)CC4(O)C(=O)C(C)=CC43)C1C2(C)C (centres undefined),Potency,[1],inactive
same,Potency,[4],"inconclusive: 0.0796 µM [inhibitor, full curve]"
same,Potency,[3],"inconclusive: 0.2 µM [inhibitor, full curve]"
same,max response,CRL-7250,inactive: -7.79%
same,Potency,HEK293,"inconclusive: 10 µM [inhibitor, single point]"
same,max response,HaCat,inactive: -11.4%
same,Potency,C33A,"inconclusive: 0.199 µM [rising, full curve]"
same,Potency,Es-2,active: 0.316 µM
same,Potency,OV90,"inconclusive: 1 µM [cytotoxic, full curve, poor fit]"
same,Potency,PA-1,"inconclusive: 0.891 µM [cytotoxic, full curve]"
COC(=O)N1CCC(n2ncc3c(N4CCOCC4)nc(-c4ccc(NC(=O)NC5CC5)cc4)nc32)CC1,Potency,[1],"inconclusive: 0.58 µM [inhibitor, full curve, poor fit]"
same,Potency,CRL-7250,active: 0.259 µM
same,Potency,HEK293,active: 0.291 µM
same,Potency,HaCat,active: 6.51 µM
same,Potency,C33A,"inconclusive: 1.26 µM [cytotoxic, full curve]"
same,Potency,CAOV3,"inconclusive: 14.1 µM [cytotoxic, partial curve]"
same,Potency,CASKI,"inconclusive: 0.562 µM [cytotoxic, full curve, poor fit]"
same,Potency,Es-2,"inconclusive: 1.12 µM [cytotoxic, full curve]"
same,Potency,Hek293T,active: 0.631 µM
same,Potency,OV90,active: 0.501 µM
same,Potency,PA-1,active: 1.41 µM
same,Potency,SKOV3,"inconclusive: 0.251 µM [cytotoxic, full curve, poor fit]"
same,Potency,Tov-21-G,"inconclusive: 0.794 µM [cytotoxic, full curve, poor fit]"
same,Potency,Tov112D,"inconclusive: 0.398 µM [cytotoxic, full curve, poor fit]"
CC(C)Cc1ccc(C(C)C(=O)OCc2ccccn2)cc1 (centres undefined),max response,CRL-7250,inactive: -2.57%
same,Potency,HEK293,"inconclusive: 33.5 µM [inhibitor, single point]"
same,outcome,HaCat,inactive
same,Potency,CASKI,inactive
Cn1cc(-c2ccc(S(=O)(=O)n3ccc(/C=C/C(=O)Nc4ccccc4N)c3)cc2)cn1,Potency,[1],active: 2.59 µM
same,Potency,CRL-7250,active: 9.2 µM
same,Potency,HEK293,"inconclusive: 0.517 µM [inhibitor, full curve, poor fit]"
same,max response,HaCat,inactive: -149%
same,Potency,C33A,"inconclusive: 20 µM [cytotoxic, partial curve, poor fit]"
same,Potency,CAOV3,active: 17.8 µM
same,Potency,CASKI,"inconclusive: 8.91 µM [cytotoxic, full curve]"
same,Potency,Es-2,active: 8.91 µM
same,Potency,Hek293T,"inconclusive: 7.94 µM [cytotoxic, full curve]"
same,Potency,JEG-3,active: 10 µM
same,Potency,OV90,active: 15.8 µM
same,Potency,PA-1,active: 7.08 µM
same,Potency,SKOV3,"inconclusive: 12.6 µM [cytotoxic, partial curve, poor fit]"
same,Potency,Tov-21-G,"inconclusive: 3.16 µM [cytotoxic, full curve]"
S=C(c1ccc(-c2ccc(Cl)c(Cl)c2)o1)N1CCCCC1,Potency,[1],inactive
same,Potency,[4],"inconclusive: 23 µM [inhibitor, partial curve, poor fit]"
same,Potency,[2],"inconclusive: 23.8 µM [inhibitor, partial curve, poor fit]"
same,Potency,CRL-7250,"inconclusive: 23.1 µM [inhibitor, single point]"
same,Potency,HEK293,"inconclusive: 29.1 µM [inhibitor, single point]"
same,outcome,HaCat,inactive
same,Potency,SKOV3,"inconclusive: 7.08 µM [cytotoxic, full curve, poor fit]"
O=C(O)c1ccc(OC2OC(CO)C(O)C(O)C2O)cc1 (centres undefined),Potency,[4],inactive
same,Potency,[2],"inconclusive: 13.4 µM [inhibitor, partial curve, poor fit]"
same,outcome,CRL-7250,inactive
same,max response,HEK293,inactive: -2.82%
same,Potency,HaCat,"inconclusive: 6.51 µM [inhibitor, single point]"
same,Potency,Es-2,inactive
COc1ccc(OC)c(-c2ccc(NC(=O)c3ccncc3F)cc2)c1,Potency,[4],"inconclusive: 3.65 µM [inhibitor, partial curve]"
same,Potency,[3],"inconclusive: 2.58 µM [inhibitor, full curve]"
same,Potency,CRL-7250,"inconclusive: 29.1 µM [inhibitor, single point]"
same,Potency,HEK293,"inconclusive: 11.6 µM [inhibitor, partial curve]"
same,max response,HaCat,inactive: -19.1%
same,Potency,CAOV3,"inconclusive: 25.1 µM [rising, single point]"
O=C(Nc1ccc(Cl)c(Cl)c1)C1CC1,Potency,[1],"inconclusive: 23.1 µM [inhibitor, single point]"
same,Potency,[4],"inconclusive: 23.7 µM [inhibitor, partial curve, poor fit]"
same,Potency,[3],"inconclusive: 26.6 µM [inhibitor, single point]"
same,Potency,CRL-7250,"inconclusive: 33.5 µM [inhibitor, single point]"
same,Potency,HEK293,"inconclusive: 23.7 µM [inhibitor, single point]"
same,Potency,HaCat,"inconclusive: 2.99 µM [inhibitor, partial curve, poor fit]"
same,Potency,Tov112D,inactive
Cn1cc(-c2ccc(F)c(C(F)(F)F)c2)nc1C1CCN(c2ncnc3[nH]ncc23)CC1,Potency,[3],"inconclusive: 37.2 µM [inhibitor, single point]"
same,Potency,CRL-7250,"inconclusive: 33.1 µM [inhibitor, single point]"
same,Potency,HEK293,"inconclusive: 8.93 µM [inhibitor, single point] and inconclusive: 8.31 µM [inhibitor, full curve]"
same,Potency,HaCat,"inconclusive: 2.24 µM [inhibitor, full curve]"
CCOC(=O)[C@@H](N)Cc1ccc(-c2cc(O[C@H](c3ccc(Cl)cc3-n3ccc(C)n3)C(F)(F)F)nc(N)n2)cc1,Potency,[4],"inconclusive: 18.3 µM [inhibitor, single point] and inconclusive: 33.2 µM [inhibitor, single point]"
same,Potency,[3],"inconclusive: 10.3 µM [inhibitor, partial curve] and active: 23.5 µM"
same,Potency,[2],inactive
same,Potency,CRL-7250,"inconclusive: 37.2 µM [inhibitor, single point]"
same,Potency,HEK293,"inconclusive: 33.2 µM [inhibitor, single point]"
same,Potency,KB-3-1,"inconclusive: 29.6 µM [inhibitor, single point]"
same,Potency,NIH3T3,"inconclusive: 25.9 µM [inhibitor, single point]"
same,Potency,C33A,inactive
CC(=O)C1=C(C)N(c2cccc(C(F)(F)F)c2)C(=O)N[C@H]1c1ccc(C#N)nc1,"activity change, negative = viability loss",[4],inactive: -10.2% [at 9.23 µM]
same,"activity change, negative = cell killing",[3],inactive: -17.1% [at 9.23 µM]
same,max response,CRL-7250,inactive: 2.3%
same,max response,HEK293,inactive: -4.03%
same,Potency,HaCat,"inconclusive: 0.0011 µM [inhibitor, full curve, poor fit]"
same,"activity change, negative = cytotoxicity",CASKI,inactive: 11.8% [at 11.6 µM]
same,Potency,PA-1,"inconclusive: 10 µM [rising, single point]"
COc1ccc(-c2ccccc2)cc1NS(=O)(=O)c1cc(Cl)cc(Cl)c1O,Potency,[4],inactive
same,Potency,[2],"inconclusive: 0.327 µM [inhibitor, full curve]"
same,Potency,CRL-7250,"inconclusive: 12.6 µM [inhibitor, single point]"
same,Potency,HEK293,"inconclusive: 10 µM [inhibitor, single point]"
same,outcome,HaCat,inactive
same,Potency,CASKI,"inconclusive: 17.8 µM [cytotoxic, single point]"
same,Potency,Es-2,"inconclusive: 11.2 µM [cytotoxic, single point]"
same,Potency,Hek293T,"inconclusive: 17.8 µM [cytotoxic, single point]"
same,Potency,JEG-3,"inconclusive: 17.8 µM [cytotoxic, single point]"
same,Potency,OV90,"inconclusive: 17.8 µM [cytotoxic, single point]"
same,Potency,PA-1,"inconclusive: 12.6 µM [cytotoxic, single point]"
same,Potency,Tov-21-G,"inconclusive: 17.8 µM [cytotoxic, single point]"
same,Potency,Tov112D,"inconclusive: 17.8 µM [cytotoxic, single point]"
